In the supplement of paper PMC12632987:
In all, about 4,500 sequences were measured (“median log2 fold change of GCK-ALFA target abundance (FLAG IP / Myc IP barcode read proportion)”: median about 0.078, lowest 2% from about -0.6 on). The list shows a part of the results.

B1: GBRAP_160_4503 (protein)
chain: MEKKEKAFKYLDEEAELAIEAAKEVSDEDAVKIVEAFAGEMIVYLKEEYGISDEAEDKAMEKVDEIVERLKSIEELTDEDVEEAIQEIRDYFKELIEKES
B2: GBRAP_160_4063 (protein)
chain: DEEKEELIEDVEEAKKLILEVIDEEGVEAAIIMFDGEFGSIIMEAASDEEASDELVDELAKIRDEGVEELEKNKDASKEEQKKIVEEAAKKAIEAIKKLY
B3: GBRAP_160_4484 (protein)
chain: SEKVEEAKREVRRIVEEMVDAIKEADPETRPAIARAYAGDIAKTAEELGVVNDEEEEEFLKLAEEGGAAIVEASELGPEAMEAAAEELIAKLEEFIREKS
B4: GBRAP_78_6624 (protein)
chain: KLEELLDEAIKLLNEAAKIALKLNTPEADELLGELVDAMSDLEEAEEEGGDLEKLKEALKELEEALKIAKKLGNKELEEKLKKAIEKVEKAIKLVEELKK
B5: GBRAP_160_4695 (protein)
chain: SETAKKLKEFVKEEFEETKKMIEGESIEQRATIVAGTGGRILMELVENEDAPDELEDEVLKIFDETVEYILANPNLTEEELKELIDEAEEKVKEAIDKYL
B6: GBRAP_128_3530 (protein)
chain: SVEEAKKEAEEVVEKIKNSDVEEARKITEEFLEKLKSWTDEEVEAAAEVLEELAPKLTAEKLEAVADTIRERRDEFTPEKQEILADLEVELLNLALEKEE
B7: GBRAP_139_3703 (protein)
chain: MSLEEKIEKAKELAKEIKENEEESLEKLVELINSLSEEEAEKAVKAIAEVLAELPLDEFERIADKLLELAKEKIEDEDKVDIIEGVLNGALARKAYAEEL
B8: GBRAP_125_3124 (protein)
chain: AEAQALADLAAVLKALGFDDEDVAEAVELAAAHSIRGTLYAALLALGDEEGADLVAKLTEEQTKEVVAAVNAWLKAHPDATPEEVKEKLLALLKEAVAAS
B9: GBRAP_125_3029 (protein)
chain: SMEELAEDLGLIAKRLGFSEGDVEELRENALKHGIKGTLIALALAEGNEELAELLEKLSEEEVAEVVRKAAKEILENPDLTPEEVKELLLKLAKEAVEKS
B10: GBRAP_52_5844 (protein)
chain: SEEEAREIAKELVELAKEGKEEELKKKIKEIVETLSEEEIMEVLEELAKLAATADPETAEVIWEVAELLAEEALKAGFDELEVSLGLALVGAAVYKAQQR
B11: GBRAP_125_3121 (protein)
chain: SMEELLEDLRIVLRALGLDEEDIEEALELARKYGLKGTMIAVAMALGWEEIADLVEKLTEEQVAEAVREVAAYIRANPDLTPEEVKAKLKEVLQEKLAAQ
B12: GBRAP_83_6873 (protein)
chain: MEKIVVATTGDHIDSAVDAAIDLHKEEGYDVELEIIATPEDREKVLAAAKRLAEAKVEMEITVILEGATPEEAEELKKEIEEIFKKAGVNNKVEVILVEP
B13: GBRAP_52_6368 (protein)
chain: MLEEALEKLREALKAVLEGKREEARKILEEIVENYSEEVILEAARRLAEELLEGTVEEAEAFLELALMLADILDEKGRSEAVGDEIEAIAARTYQTILEK
B14: GBRAP_26_5462 (protein)
chain: MDEAFKAAVDAVDAITAKLPDPTAAAGVRTVAYTEIEELEEDIEAGKDIAEAVAAARDAVLAESREILEEAGLDDATIDAVLAALDAVFDALEKDLKAAA
B15: GBRAP_128_3601 (protein)
chain: AAEEAAKYAREKMEKIKNSNLEEAKKIAEELAEWLLTLSLEEVKAAVEEIKKLAKELSEEKLLILQDALHEAAKKASPEKAEALLDALGELGEEAYEKEE
B16: GBRAP_52_5842 (protein)
chain: MEEEARRLAEELVALAEAGREEELDALIEEIVETLSEEEVMLVLEELARLAAEADPETAEVIFDVADRLADAALAAGFDEMEMSLGLALVGAAVYKALQR
B17: GBRAP_137_3674 (protein)
chain: MIDAEIEIEDGLAYAKLTYKGSLEEAKKAAEIAEEIAAKIPGLAVSTKVEEDGTLTIDVGGTLEQVMKFLKELAKALNVTINVTIKNEDTGETTEETIKA
B18: GBRAP_160_4079 (protein)
chain: SELTEKTKEEIKELIEEAYEFMIESNQEERIAIARVMAGDILMEVLENPKVSDEAEEKIDEILDETVEKIEKTKGISDEELKELLEKLAEEISKILDEEE
B19: GBRAP_139_3707 (protein)
chain: SALEELIAEARRLTREMREDPEAALEALVELLLSVSEEELEVLVEAIAEELSRLPLDEAEELADRLLELVEERFKDEDKIDIVEAVLNGALARKAAEEEA

Target: GABARAP, O95166
Sequence (O95166 whole entry, the tested form may be a part): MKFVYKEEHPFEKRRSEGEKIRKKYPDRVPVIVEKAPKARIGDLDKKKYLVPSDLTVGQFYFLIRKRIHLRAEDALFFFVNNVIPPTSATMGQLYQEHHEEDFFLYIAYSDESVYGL
Test: median log2 fold change of GCK-ALFA target abundance (FLAG IP / Myc IP barcode read proportion) (log2 ratio); each designed protein is fused to an ALFA-tag nanobody in HEK293 cells to bring the named protein to FLAG-tagged glucokinase (GCK); Myc marks an untargeted standard; higher = target protein stabilised (more abundant)
Conditions: target protein: 3xFLAG-MCP-GCK-ALFA reporter; HEK293 landing pad (RPLP)
Method in brief: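 The readout is target abundance, the per-binder median log2 ratio of FLAG to Myc barcode read proportions. It came from HEK293 landing-pad cells carrying a recombined ALFA-nanobody-fused binder library, induced with 2 μg mL^−1 doxycycline and transfected with a plasmid for a FLAG-tagged target and a Myc-tagged standard. After 48 h, lysates were immunoprecipitated with anti-FLAG and anti-Myc, and circular RNA barcodes were reverse transcribed, amplified and sequenced. Each barcode needed a proportion of at least 10^−7 in both replicates and each binder at least 3 barcodes per replicate, a pseudocount of 10^−6 was added, and the replicates were pooled.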

Row | Binder | median log2 fold change
1 | B1 | 0.161
2 | B2 | 0.146
3 | B3 | 0.417
4 | B4 | 0.0665
5 | B5 | -0.283
6 | B6 | -0.0321
7 | B7 | 0.211
8 | B8 | -0.452
9 | B9 | 0.277
10 | B10 | -0.217
11 | B11 | -0.154
12 | B12 | 0.372
13 | B13 | 0.0369
14 | B14 | 0.113
15 | B15 | 0.196
16 | B16 | -0.837
17 | B17 | 0.252
18 | B18 | -0.112
19 | B19 | -0.0884
